Results published in the antibiotic and cytotoxicity screens of Wong et al. (2023).
Some of the results follow.

Key:
[1] = system: HSkMC (human skeletal muscle cells); experiment: cytotoxicity call (relative viability < 0.9); details: 10 µM
[2] = system: HepG2; experiment: cytotoxicity call (relative viability < 0.9); details: 10 µM
[3] = system: S. aureus RN4220; experiment: growth inhibition call (relative growth <= 0.2); details: 50 µM

C[C@@H]1CN([C@H](C)CO)S(=O)(=O)c2ccc(-c3cncnc3)cc2O[C@H]1CN(C)C(=O)Cc1cccnc1
inactive: cytotoxicity call [1] | cytotoxicity call [2] | growth inhibition call [3]

C[C@@H]1CN([C@H](C)CO)C(=O)Cc2cc(N(C)C)ccc2O[C@@H]1CN(C)S(=O)(=O)c1ccc(Cl)cc1
inactive: cytotoxicity call [1] | cytotoxicity call [2] | growth inhibition call [3]

Cc1noc(C)c1NC(=O)Nc1ccc2c(c1)C(=O)N([C@H](C)CO)C[C@H](C)[C@@H](CN(C)C(=O)Nc1cccc3ccccc13)OCCCC[C@@H](C)O2
inactive: cytotoxicity call [1] | cytotoxicity call [2] | growth inhibition call [3]

C[C@H]1CCCCO[C@H](CN(C)C(=O)c2ccccc2)[C@@H](C)CN([C@@H](C)CO)C(=O)c2cc(NS(=O)(=O)c3ccc(F)cc3)ccc2O1
inactive: cytotoxicity call [1] | cytotoxicity call [2] | growth inhibition call [3]

O=C(C[C@H]1CC[C@@H]2[C@H](COC[C@H](O)CN2C(=O)c2ccncc2)O1)NCc1ccc(-c2ccccc2)cc1
inactive: cytotoxicity call [1] | cytotoxicity call [2] | growth inhibition call [3]

Cc1noc(C)c1NC(=O)N(C)C[C@H]1OCCCC[C@H](C)Oc2ccc(NC(=O)NC3CCCCC3)cc2C(=O)N([C@H](C)CO)C[C@@H]1C
inactive: cytotoxicity call [1] | cytotoxicity call [2] | growth inhibition call [3]

Cc1ccc(S(=O)(=O)Nc2ccc3c(c2)C(=O)N([C@@H](C)CO)C[C@H](C)[C@H](CN(C)S(=O)(=O)c2cn(C)cn2)O3)cc1
inactive: cytotoxicity call [1] | cytotoxicity call [2] | growth inhibition call [3]

C[C@H](CO)N1C[C@H](C)[C@@H](CN(C)C(=O)Nc2cccc3ccccc23)OCCCC[C@H](C)Oc2ccc(NS(C)(=O)=O)cc2C1=O
inactive: cytotoxicity call [1] | cytotoxicity call [2] | growth inhibition call [3]
